Values joined by “and” are separate entries in the source; they are usually repeats but may differ in a detail not shown here. Equal entries are not always repeated. The campaign covered roughly 48,000 compounds. About 1,200 (2.5%) were called active. Not shown: some 2% with an inconclusive outcome.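 How the source made its calls: active means activation of at least 60% and not above a set upper limit (about 1 call in 100 departs from these limits); inconclusive means activation of 40% to 60%, or above that upper limit; inactive means activation under 40%.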 The list shows a part of the results.
The compounds below were run against Probable G-protein coupled receptor 32 (Homo sapiens) (UniProt O75388) (assay: qHTS for Agonists of Human Resolvin D1 Receptor DRV1). Details: CHO-K1 GPR32 beta-arrestin PathHunter luminescence, 90 min; at 76.9 µM; hits give high values; zero percent set by DMSO-only wells.
How it was run: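 GPR32 activation in stably transfected CHO-K1 cells, detected as beta-arrestin recruitment by enzyme-fragment complementation. Compound exposure: 90 min, 37 °C.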
Further: 0% is about no effect.

UniProt O75388, sequence (O75388 whole entry, looked up, the tested form may be a part): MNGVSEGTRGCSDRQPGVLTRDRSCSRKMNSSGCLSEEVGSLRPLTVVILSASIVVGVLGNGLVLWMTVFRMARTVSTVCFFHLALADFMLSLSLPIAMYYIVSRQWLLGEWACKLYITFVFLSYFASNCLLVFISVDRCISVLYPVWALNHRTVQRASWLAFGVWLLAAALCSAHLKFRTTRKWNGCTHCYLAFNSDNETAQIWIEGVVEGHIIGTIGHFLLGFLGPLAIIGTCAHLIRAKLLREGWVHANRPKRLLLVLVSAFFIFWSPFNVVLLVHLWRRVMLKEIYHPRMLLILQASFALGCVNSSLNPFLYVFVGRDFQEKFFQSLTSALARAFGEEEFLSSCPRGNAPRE

activation, inactive:
COc1ccc(OC)c(NC(=O)Cn2nc3c(cc2=O)CCCC3)c1 -2.94%
O=C(NCCN1CCOCC1)c1ccc(Cl)cc1 2.78% and -3.73%
CCc1ccc(NC(=O)CC2C(=O)N(c3cccc(C)c3)C(=O)N2Cc2cccc(OC)c2)cc1 (stereo not drawn) -21.4%
COc1ccc(CCNS(=O)(=O)c2ccc3c(c2)c(=O)n(C)c(=O)n3C)cc1OC -0.728%
Cc1ccc(NC(=O)CCCc2nnc3n(C)c(=O)c4sccc4n23)cc1C 4.01%
Cc1ccc(NC(=O)c2nc(S(C)(=O)=O)ncc2N(Cc2cccc(F)c2)Cc2ccco2)cc1C -17.9%
CCc1nn(CC(=O)NCc2ccco2)c(=O)c2cc3cc(F)ccc3n12 -3.66%
NS(=O)(=O)c1ccc(NC(=O)c2cc(-c3cccs3)nc3ccccc23)cc1 1.82%
O=C(CN1C(=O)C2CCCCN2c2ccc(C(=O)N3CCCC3)cc21)NCc1ccc(F)cc1 (stereo not drawn) -15.7%
COc1ccc(CNC(=O)C2CCCCN2S(=O)(=O)c2ccc(F)cc2)cc1 (stereo not drawn) -4.2%
Cc1nc(N2CCOCC2)c2c(C(=O)N3CCN(c4cc(Cl)ccc4C)CC3)c(C)oc2n1 -18.5%
CCN1CCC(N(Cc2ccc(F)cc2)C(=O)Nc2cc(C)ccc2C)CC1 -3.63%
CCCNC(=O)CN1C(=O)COc2ccc(S(=O)(=O)N3CCCC3)cc21 -16.2%
CCOc1ccccc1CNc1ncnc2onc(-c3ccc(F)cc3)c12 -3.41%
CC1CCCCN1C(=O)CSc1nc2ccccc2nc1Cc1ccccc1 (stereo not drawn) -4.95%
COc1ccc(-n2cc(C(=O)NCCc3ccc(C)cc3)c3ccccc3c2=O)cc1 -22.5%
O=C(Nc1ccc(S(=O)(=O)Nc2ncccn2)cc1)c1cccc(Cl)c1 43.3%
CCOc1ccc(N2C(=O)c3[nH]nc(-c4ccccc4)c3C2c2ccc(O)c(OC)c2)cc1 (stereo not drawn) -9.41%
COC(=O)c1ccc(C2CC(=O)Nc3c2c(C)nn3-c2nc(C)cc(C)n2)cc1 (stereo not drawn) -8.84%
O=C(Cn1ccc2cc(S(=O)(=O)N3CCCC3)ccc21)NCc1ccc(Cl)cc1 -15.5%
CCN(CC)c1ccc(NC(=O)CN2CCN(S(=O)(=O)c3ccc(C(C)C)cc3)CC2)cc1 -20.4%
Cc1cc(C)cc(NC(=O)CC(C)n2nc(C)cc2C)c1 (stereo not drawn) -14.1%
COc1ccc(CNC(=O)c2ccc3c(c2)N=C(C)c2c(C)ccc(C)c2S3)cc1 -19.8%

— PubChem BioAssay AID1346428 (National Center for Advancing Translational Sciences (NCATS), 2018)
